Assay results taken from the supplement of paper PMC3334620.
The full ranking holds about 33,000 sequences; the median of “E-score (-0.5 to 0.5)” is about -0.04, and the highest 2% start at about 0.36. Some of the results follow.

What follows are sequences tested against T1, Hmlalpha2 (UniProt P0CY09) (assay: PBM E-score (8-mer binding enrichment) (E-score (-0.5 to 0.5)); higher = stronger / more preferred TF binding; most listed sequences are background and not binding sites). Settings: protein concentration: 200 nM; construct: GST-full length.
T1 sequence: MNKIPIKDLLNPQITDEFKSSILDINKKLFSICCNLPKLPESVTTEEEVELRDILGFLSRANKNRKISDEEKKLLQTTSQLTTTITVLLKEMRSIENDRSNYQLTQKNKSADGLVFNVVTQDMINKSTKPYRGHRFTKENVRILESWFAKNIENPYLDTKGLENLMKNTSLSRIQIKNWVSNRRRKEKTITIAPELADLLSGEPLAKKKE
Procedure, shortened: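 E-scores (a modified Wilcoxon-Mann-Whitney statistic) were assigned by the Universal PBM Analysis Suite to every ungapped eight-base word pooled with its reverse complement. The input came from universal all-10-mer Agilent arrays made double-stranded by primer extension and probed with GST-tagged yeast transcription factors at about 100-200 nM. Fluorescent anti-GST detected bound protein, and masliner normalised the scans.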

Row | Sequence | PBM E-score
1 | AAACAGCG | 0.036
2 | GTGGACGA | -0.06
3 | CGTACCAA | -0.0418
4 | CTCTGTGA | 0.0893
5 | AGGTGAGA | -0.0965
6 | CTAGTACA | 0.283
7 | GGCTATTA | 0.102
8 | ATCCGAAC | -0.169
9 | AGAGCCGA | -0.106
10 | AGCTTTCC | -0.237
11 | CAACTCAG | -0.0942
12 | AGATGCAT | 0.04
13 | ACCTTACG | 0.113
14 | GGATATTA | 0.0957
15 | ATGGCGCG | 0.0794
16 | GCAGCCCC | -0.285
17 | CGTGTGCC | -0.0366
18 | AGGAGACC | -0.286
19 | CCGTGCGC | -0.0463
20 | CATGATGC | 0.0581
21 | ATAGCTTA | 0.0621
22 | AACGTCGG | -0.044
23 | ATGGCTAG | -0.174
24 | ATCCTCTA | 0.0621
25 | GGTAAGAA | -0.0659

Row | Sequence | PBM E-score
26 | ATTTTCAG | -0.0546
27 | GCTAGCCC | -0.338
28 | TCGACAAA | 0.2
29 | GTAAACCA | 0.148
30 | CTAGCGGA | -0.202
31 | CGAGGCTC | -0.226
32 | CACGCGGG | 0.0813
33 | ATTCGTAG | 0.13
34 | CTCCCCAC | -0.3
35 | AGTAATGC | 0.1
36 | AACCGAGA | -0.102
37 | GCTTCGCC | -0.364
38 | CCTTATCG | -0.0406
39 | AGGTACGC | -0.0302
40 | ACGTATTC | 0.335
41 | AACGCTGG | -0.0906
42 | AGCCGAAT | -0.091
43 | CATATCAA | 0.169
44 | CGCTAGGC | -0.265
45 | GGCCCCAA | -0.304
46 | CAGGTATA | 0.0147
47 | AAGATAGA | 0.0963
48 | ACCAGCTG | -0.213
49 | ACTTGCGG | -0.217
50 | AAGTCAGG | -0.18

Row | Sequence | PBM E-score
51 | TACGTACA | 0.364
52 | TCGCAAGA | -0.1
53 | TCCCCTAA | -0.236
54 | CTTGACGC | 0.0471
55 | GTCGGAGA | -0.101
56 | ACTGCTGC | -0.201
57 | ATCCAGAG | 0.0154
58 | GAACCACC | -0.192
59 | AGTCAGCG | -0.209
60 | GTGCAAAA | 0.151
61 | AAATTCAG | -0.0293
62 | TCCAGGAA | -0.0965
63 | CCATAGGA | -0.26
64 | CTGCGTAA | 0.417
65 | ACCAATAA | -0.00652
66 | CACCCAAA | -0.148
67 | CTTTTGCA | 0.105
68 | GACATCTA | 0.0495
69 | CACGTGTA | 0.444
70 | CCACATGG | -0.0738
71 | AGCCATTC | -0.0841
72 | AATAATAT | 0.253
73 | CTTGTCAA | 0.292
74 | AGGAGAAG | -0.164
75 | AGTACGAC | 0.107

Row | Sequence | PBM E-score
76 | CTAGGGAC | -0.277
77 | CAGCCATA | -0.172
78 | CACAGAAC | 0.188
79 | GTGTCTCA | -0.0554
80 | CGAGGCCG | -0.268
81 | AAGTCTGA | -0.158
82 | ACGGGGAT | -0.233
83 | GCAGTAGC | -0.144
84 | CACCCTCG | -0.147
85 | AACGAATA | 0.00559
86 | AGGCAATA | -0.0326
87 | TTGGAAAA | 0.0001
88 | CTTGGGTC | -0.215
89 | GAGGTCCA | -0.138
90 | CAAACTGG | -0.285
91 | ACGCGAGC | 0.0805
92 | TCGAGTAA | 0.338
93 | AGCTGTTG | 0.117
94 | AGGCGCCT | -0.0272
95 | ATGAGAAG | -0.112
96 | CCAGGTTC | -0.111
97 | AATCCTAT | -0.0522
98 | GGAGACAA | -0.0427
99 | CCCAATCC | -0.281
100 | CCATCAGC | -0.231

Row | Sequence | PBM E-score
101 | CTTTCCTC | -0.0674
102 | GCGACCCA | -0.292
103 | GGCAGGCC | -0.245
104 | CCCCCCGC | -0.348
105 | GCTGTGCA | 0.0482
106 | CAAAGGTG | -0.144
107 | GGCCAGCA | -0.189
108 | ATGCAGCG | -0.184
109 | AAAACGAC | 0.165
110 | AGAATAGG | -0.108
111 | AGAGGATA | -0.00713
112 | ATGATCCG | -0.0129
113 | AGTGGTAC | -0.0807
114 | GTTCCGGA | 0.0592
115 | ACGTTCCG | -0.0636
116 | CCTGCCAG | -0.0668
117 | ATCTAATA | 0.198
118 | CAGCTATC | -0.129
119 | CCCCATCA | -0.0432
120 | ACTAGACA | 0.148
121 | CGTAGATC | 0.201
122 | AGCTTCGC | -0.101
123 | TATTGTGA | 0.111
124 | CGTCCTAG | 0.0384
125 | AAAGACTA | 0.025

Row | Sequence | PBM E-score
126 | GCGGGAGC | -0.34
127 | AAGCCGGT | -0.0642
128 | CAAGGGAG | -0.0374
129 | ATCCCCAT | -0.084
130 | CCGTACGC | -0.0838
131 | ATGTATGC | 0.358
132 | CCAATTGG | -0.127
133 | CCGTTTTA | 0.194
134 | GCTGCTTA | -0.0322
135 | GACTAACC | 0.0233
136 | ACATAGTG | 0.2
137 | ACGAAACG | 0.0527
138 | GGTGGATA | -0.237
139 | CACTCAAC | 0.0747
140 | TAGATAAA | 0.0875
141 | CGCTCGAA | -0.054
142 | ACAAACCG | 0.039
143 | GACAAGTA | 0.071
144 | AGAGCTTC | -0.179
145 | AAACCACA | 0.142
146 | AGGTCCTG | -0.272
147 | ATCTGAAA | 0.0558
148 | AGACGTCC | -0.0269
149 | CCCTGTAG | 0.0278
150 | CACCGGGG | -0.326

Row | Sequence | PBM E-score
151 | GATACTGC | 0.016
152 | ATTCACTG | 0.0199
153 | AGCGTGCA | 0.11
154 | CTAATGGC | -0.144
155 | CGGTGGGA | -0.316
156 | CCCACAAC | -0.152
157 | ATAGGCCA | -0.138
158 | AAAACTCT | 0.0694
159 | CACTCGCA | 0.0187
160 | AATCAGTC | 0.0535
161 | ACTATCAG | -0.0387
162 | CAGACCGC | -0.149
163 | CCAAAAAC | 0.086
164 | AGATCTCG | -0.182
165 | CACATTCA | 0.00638
166 | ATGGTTTC | 0.0792
167 | CAATTGGA | -0.199
168 | ACCGGGCG | -0.422
169 | AGTACTGA | 0.00967
170 | ATGCTAGC | 0.139
171 | CTTATAGA | -0.154
172 | GACAATCC | -0.202
